Experimental findings from the BET-seq Pho4 binding data (Le et al. 2018) are described below.

This is one part of the list. The energies were worked out here from pooled read counts, against the library average; single values are noisy.

The target in the assay is T1, Pho4 (S. cerevisiae) (UniProt P07270).
T1 sequence: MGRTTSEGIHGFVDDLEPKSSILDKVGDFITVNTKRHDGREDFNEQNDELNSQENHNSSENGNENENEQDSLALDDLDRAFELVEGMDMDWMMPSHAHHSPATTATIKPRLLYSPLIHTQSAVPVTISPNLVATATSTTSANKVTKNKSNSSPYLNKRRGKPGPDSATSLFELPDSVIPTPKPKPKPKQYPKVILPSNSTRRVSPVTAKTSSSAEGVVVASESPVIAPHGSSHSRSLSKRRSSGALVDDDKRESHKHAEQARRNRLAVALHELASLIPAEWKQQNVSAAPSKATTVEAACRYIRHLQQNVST
The assay is described as follows: relative binding free energy (BET-seq); higher = weaker binding. As to conditions: reference: library average.
Take TTGAACACGTGGTAGC: the “relative binding free energy” value is 0.07 kcal/mol.
On to GATTGCACGTGAGGGA, for which the “relative binding free energy” value was 0.3 kcal/mol.
In the case of AAAGACACGTGTGGCT it was 0.14 kcal/mol; in that of GTTCTCACGTGTAGTA, 0.36 kcal/mol; in that of AGAGTCACGTGGGAGG, 0.05 kcal/mol.
In the case of AGAGGCACGTGTAGTT it was 0.14 kcal/mol; in that of TTTGTCACGTGGACTT, 0.16 kcal/mol; in that of GTTTTCACGTGGTTGA, 0.43 kcal/mol.
TTGTTCACGTGGCTTC: the “relative binding free energy” value was 0.14 kcal/mol.
With GTTGGCACGTGCGTGC, the “relative binding free energy” value was -0.04 kcal/mol.
For the sequence TTGATCACGTGATGTT, the “relative binding free energy” value was found to be 0.42 kcal/mol.
For GCTAGCACGTGGGCGG, the “relative binding free energy” value is -0.06 kcal/mol.
For the sequence ATTGTCACGTGTACAG, the “relative binding free energy” value was 0.05 kcal/mol.
Regarding TGTTTCACGTGGGGCT, the “relative binding free energy” value turned out to be 0.17 kcal/mol.
Under GAAGGCACGTGGTGTT stands -0.05 kcal/mol.
GTTGTCACGTGAGCTA: the “relative binding free energy” value is 0.2 kcal/mol.
Under AGCTTCACGTGTTATG stands 0.19 kcal/mol; under AACTTCACGTGTGGTG, 0.31 kcal/mol.
In the case of TGTGACACGTGCGGGG it was -0.11 kcal/mol.
In the case of TGAGTCACGTGAGCAT it was 0.32 kcal/mol.
With TCTTTCACGTGACGGT, the “relative binding free energy” value was 0.17 kcal/mol.
In the case of GTTCGCACGTGAGGCG it was 0.24 kcal/mol; in that of AGGTGCACGTGGCGAG, -0.09 kcal/mol; in that of GGTAACACGTGGAAAT, 0.34 kcal/mol.
TAGTTCACGTGTTCGG: the “relative binding free energy” value stood at 0.26 kcal/mol.
Under TGAAGCACGTGTTTGA stands -0.17 kcal/mol; under TGTTCCACGTGTAGGT, 0.12 kcal/mol.
In the case of CGTTGCACGTGGCGGA it was -0.05 kcal/mol; in that of AGGGTCACGTGTTGAG, 0.16 kcal/mol; in that of GAGTTCACGTGGATTT, 0.38 kcal/mol.
In the case of GTACGCACGTGCGTTG it was -0.1 kcal/mol; in that of TGTTTCACGTGATTAA, 0.33 kcal/mol.
For TCGGTCACGTGAAGGT, the “relative binding free energy” value came out at 0.27 kcal/mol.
Under TGTCACACGTGGGAGT stands 0.06 kcal/mol; under TTGAGCACGTGTTACA, -0.02 kcal/mol.
In the case of TGTCGCACGTGGTGTC it was -0.07 kcal/mol.
In the case of CTTTGCACGTGTGCGG it was -0.01 kcal/mol; in that of TTACGCACGTGCTTGG, -0.19 kcal/mol.
TGCGTCACGTGTAGGC: the “relative binding free energy” value is 0.08 kcal/mol.
TTGTGCACGTGGTTTT: the “relative binding free energy” value was -0.01 kcal/mol.
Under CACTTCACGTGGTGTG stands 0.13 kcal/mol; under TGTGGCACGTGGTGTA, -0.09 kcal/mol.
Under TGGATCACGTGGGAGG stands 0.07 kcal/mol; under TTGTACACGTGAAGAG, 0.33 kcal/mol; under TATTTCACGTGTAGAG, 0.21 kcal/mol.
Under CAGGGCACGTGGGGGG stands -0.21 kcal/mol; under TAAAACACGTGAGTTT, 0.35 kcal/mol.
CTTTACACGTGATGGG: the “relative binding free energy” value amounted to 0.25 kcal/mol.
In the case of AGAAGCACGTGGGTCT it was -0.2 kcal/mol; in that of ATTTACACGTGGTGAC, 0.01 kcal/mol; in that of TATAACACGTGTAGAG, 0.02 kcal/mol.
Under GGGGTCACGTGTCGGA stands 0.34 kcal/mol; under GTTGTCACGTGTGATA, 0.19 kcal/mol.
Under GGAGTCACGTGTGTCT stands 0.12 kcal/mol; under AGGGGCACGTGTGGAC, -0.06 kcal/mol.
Consider GGTTACACGTGTGCGG, for which the “relative binding free energy” value was 0.23 kcal/mol.
In the case of TGTAACACGTGTATAA it was 0.01 kcal/mol; in that of TAGTTCACGTGACTTG, 0.4 kcal/mol.
In the case of CTAATCACGTGGGGTG, the “relative binding free energy” value was -0.14 kcal/mol.
In the case of GGAGACACGTGGTAAT it was 0.03 kcal/mol; in that of TGAGGCACGTGGGTGG, -0.15 kcal/mol; in that of TAGTTCACGTGGGTTA, 0.14 kcal/mol.
TTGGGCACGTGGAAAA: the “relative binding free energy” value is 0.16 kcal/mol.
In the case of GATAACACGTGTCGGG it was 0.11 kcal/mol; in that of AGAATCACGTGTTCGG, 0.12 kcal/mol; in that of TTCGTCACGTGGTAGG, 0.07 kcal/mol.
Turning to GAGGTCACGTGTTGTC, the “relative binding free energy” value came out at 0.19 kcal/mol.
As to GGGTTCACGTGAAGTC, the “relative binding free energy” value came out at 0.47 kcal/mol.
In the case of GGATTCACGTGTGGCT it was 0.29 kcal/mol; in that of TTATTCACGTGATCGG, 0.28 kcal/mol; in that of ATCGTCACGTGTGTTT, 0.08 kcal/mol.
Regarding GGAGTCACGTGGAATG, the “relative binding free energy” value was 0.18 kcal/mol.
Under TAAGGCACGTGTGACT stands 0.01 kcal/mol; under GGTGTCACGTGTTTAA, 0.11 kcal/mol; under TGGTACACGTGACGGG, 0.22 kcal/mol.
Regarding ATAGGCACGTGTTTAA, the “relative binding free energy” value was -0.14 kcal/mol.
In the case of GTTTACACGTGTGGAC it was 0.17 kcal/mol.
Under GTAGTCACGTGTTTCA stands 0.04 kcal/mol; under GGCTCCACGTGGAGGT, 0.03 kcal/mol.
In the case of GATTACACGTGATGAG it was 0.33 kcal/mol; in that of GTTTACACGTGAGCTG, 0.16 kcal/mol.
As for TATGCCACGTGGGGGG, the “relative binding free energy” value was -0.33 kcal/mol.
In the case of GTCATCACGTGAGGCG it was 0.37 kcal/mol; in that of ATATACACGTGGCGTG, -0.03 kcal/mol; in that of GGAATCACGTGGATTG, 0.3 kcal/mol.
Under AAGGGCACGTGGTATG stands -0.21 kcal/mol.
In the case of TTTTGCACGTGCTGTG it was 0.01 kcal/mol; in that of CTTGGCACGTGATGGA, 0.07 kcal/mol; in that of GAGCGCACGTGGTGTT, -0.1 kcal/mol.
With AGGCGCACGTGGTCGG, the “relative binding free energy” value was -0.24 kcal/mol.
Under GTGTGCACGTGTGGTA stands 0.15 kcal/mol; under GCATGCACGTGTTAGT, 0.18 kcal/mol; under CGGGTCACGTGATTGA, 0.23 kcal/mol.
In the case of GTTATCACGTGTACGT it was 0.14 kcal/mol; in that of TGTTACACGTGTCTGT, 0.07 kcal/mol.
For ATTGACACGTGATTGA, the “relative binding free energy” value is 0.02 kcal/mol.
In the case of ATTAGCACGTGGGCGA it was -0.21 kcal/mol.
Under AATATCACGTGTGTTC stands 0.1 kcal/mol; under TGAGTCACGTGCGCTT, 0.02 kcal/mol.
In the case of ATAAGCACGTGAGGCG it was 0.06 kcal/mol.
Turning to ATTGTCACGTGTTATG, the “relative binding free energy” value stood at 0.05 kcal/mol.
For TGGCTCACGTGTTTGT, the “relative binding free energy” value was found to be 0.18 kcal/mol.
As to AATAGCACGTGGTAAA, the “relative binding free energy” value was 0.05 kcal/mol.
Under TTATCCACGTGTGATG stands 0.09 kcal/mol; under GCGATCACGTGTGGAG, 0.29 kcal/mol; under TTGTGCACGTGATGTG, 0.06 kcal/mol.
In the case of AGTTTCACGTGTAAAG it was 0.19 kcal/mol.
In the case of GTTTTCACGTGTCGTA it was 0.31 kcal/mol; in that of AGGATCACGTGTGGCG, 0.01 kcal/mol.
For CTTATCACGTGTTGAG, the “relative binding free energy” value amounted to 0.19 kcal/mol.
In the case of TCGTGCACGTGTTGGT it was -0.05 kcal/mol.
In the case of GAATTCACGTGTGAGT it was 0.27 kcal/mol; in that of AAGGACACGTGGAAGT, 0.16 kcal/mol.
Under TCAAGCACGTGGTTTT stands -0.08 kcal/mol; under CGAAGCACGTGTGGTA, 0 kcal/mol.
